# Reference: the supplement of paper PMC8728848
# This is one part of the list.
# B1: SCA (Schizophyllum commune) (protein)
# chain: MGIDQGVYLITNAGSGTAATLKDGYVKGWERIKGKEQLNQLWFVKSVKTSASDPGYAAFNLATNKVLDLEKGLADRGTPILGWDYHEGDNQHWVIKKQADGKYYKIQSVKTQTFVDLNNGGKDNGTKIQGWVGSWDETNSHQRWVFNQFSATGSRIKSILDTHPKIHGKVIVEWPDRIYFTPDQYIFEAIWAKTGLADIKPRDPLFQSEAYEKVFKGWVVSRAQEIIKVDGFDILVGSLSLVEKSTQKIKVLDVSVRTSDDKSPDLSQIVFFDPESGRTLVDIPEGYEVNSVII
# Legend:
# Assay in all cases: glycan array binding signal (z-score within array); higher = stronger binding
# Details in all cases: glycan notation: IUPAC condensed, linker removed
# Fuc(a1-2)Gal = biological target: Fuc(a1-2)Gal
# In short: (§1)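 The binding signal is a Z-score computed within each array and averaged over linkers. Arrays of the same protein sequence at different concentrations or buffers were also averaged together. Data originate from 3228 arrays in the Consortium for Functional Glycomics database, kept only where the protein sequence was available.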
# Fuc(a1-2)Gal(b1-3)GalNAc = biological target: Fuc(a1-2)Gal(b1-3)GalNAc
# In short: as §1
# [1] = biological target: Fuc(a1-2)Gal(b1-3)GalNAc(a1-3)[Fuc(a1-2)]Gal(b1-4)Glc
# In short: as §1
# [2] = biological target: Fuc(a1-2)Gal(b1-3)GalNAc(a1-3)[Fuc(a1-2)]Gal(b1-4)GlcNAc
# In short: as §1
# [3] = biological target: Fuc(a1-2)Gal(b1-3)GalNAc(b1-3)Gal
# In short: as §1
# [4] = biological target: Fuc(a1-2)Gal(b1-3)GalNAc(b1-3)Gal(a1-4)Gal(b1-4)Glc
# In short: as §1
# [5] = biological target: Fuc(a1-2)Gal(b1-3)GalNAc(b1-4)[Neu5Ac(a2-3)]Gal(b1-4)Glc
# In short: as §1
# Fuc(a1-2)Gal(b1-3)GlcNAc = biological target: Fuc(a1-2)Gal(b1-3)GlcNAc
# In short: as §1
# [6] = biological target: Fuc(a1-2)Gal(b1-3)GlcNAc(b1-2)Man(a1-3)[Fuc(a1-2)Gal(b1-3)GlcNAc(b1-2)Man(a1-6)]Man(b1-4)GlcNAc(b1-4)GlcNAc
# In short: as §1
# [7] = biological target: Fuc(a1-2)Gal(b1-3)GlcNAc(b1-2)Man(a1-3)[Fuc(a1-2)Gal(b1-3)GlcNAc(b1-2)Man(a1-6)]Man(b1-4)GlcNAc(b1-4)[Fuc(a1-6)]GlcNAc
# In short: as §1
# [8] = biological target: Fuc(a1-2)Gal(b1-3)GlcNAc(b1-3)Gal(b1-4)Glc
# In short: as §1
# [9] = biological target: Fuc(a1-2)Gal(b1-3)GlcNAc(b1-3)GalNAc
# In short: as §1
# [10] = biological target: Fuc(a1-2)Gal(b1-3)GlcNAc(b1-3)[Fuc(a1-3)[Gal(b1-4)]GlcNAc(b1-6)]Gal(b1-4)Glc
# In short: as §1
# [11] = biological target: Fuc(a1-2)Gal(b1-3)GlcNAc(b1-3)[Gal(b1-4)GlcNAc(b1-6)]Gal(b1-4)Glc
# In short: as §1
# [12] = biological target: Fuc(a1-2)Gal(b1-3)GlcNAc(b1-3)[Neu5Ac(a2-6)Gal(b1-4)GlcNAc(b1-6)]Gal(b1-4)Glc
# In short: as §1
# [13] = biological target: Fuc(a1-2)Gal(b1-3)[Fuc(a1-4)]GlcNAc
# In short: as §1
# [14] = biological target: Fuc(a1-2)Gal(b1-3)[Fuc(a1-4)]GlcNAc(b1-2)Man(a1-3)[Fuc(a1-2)Gal(b1-3)[Fuc(a1-4)]GlcNAc(b1-2)Man(a1-6)]Man(b1-4)GlcNAc(b1-4)GlcNAc
# In short: as §1
# [15] = biological target: Fuc(a1-2)Gal(b1-3)[Fuc(a1-4)]GlcNAc(b1-3)[Fuc(a1-3)[Gal(b1-4)]GlcNAc(b1-6)]Gal(b1-4)Glc
# In short: as §1
# [16] = biological target: Fuc(a1-2)Gal(b1-3)[Fuc(a1-4)]GlcNAc(b1-3)[Gal(b1-4)GlcNAc(b1-6)]Gal(b1-4)Glc
# In short: as §1
# Fuc(a1-2)Gal(b1-4)Glc = biological target: Fuc(a1-2)Gal(b1-4)Glc
# In short: as §1
# Fuc(a1-2)Gal(b1-4)Glc6S = biological target: Fuc(a1-2)Gal(b1-4)Glc6S
# In short: as §1
# Fuc(a1-2)Gal(b1-4)GlcNAc = biological target: Fuc(a1-2)Gal(b1-4)GlcNAc
# In short: as §1
# [17] = biological target: Fuc(a1-2)Gal(b1-4)GlcNAc(b1-2)Man(a1-3)[Fuc(a1-2)Gal(b1-4)GlcNAc(b1-2)Man(a1-6)]Man(b1-4)GlcNAc(b1-4)GlcNAc
# In short: as §1
# [18] = biological target: Fuc(a1-2)Gal(b1-4)GlcNAc(b1-2)Man(a1-3)[Fuc(a1-2)Gal(b1-4)GlcNAc(b1-2)Man(a1-6)]Man(b1-4)GlcNAc(b1-4)[Fuc(a1-6)]GlcNAc
# In short: as §1
# [19] = biological target: Fuc(a1-2)Gal(b1-4)GlcNAc(b1-2)[Fuc(a1-2)Gal(b1-4)GlcNAc(b1-4)]Man(a1-3)[Fuc(a1-2)Gal(b1-4)GlcNAc(b1-2)Man(a1-6)]Man(b1-4)GlcNAc(b1-4)GlcNAc
# In short: as §1
# [20] = biological target: Fuc(a1-2)Gal(b1-4)GlcNAc(b1-3)Gal(b1-4)GlcNAc
# In short: as §1
# [21] = biological target: Fuc(a1-2)Gal(b1-4)GlcNAc(b1-3)Gal(b1-4)GlcNAc(b1-3)Gal(b1-4)GlcNAc
# In short: as §1
# [22] = biological target: Fuc(a1-2)Gal(b1-4)GlcNAc(b1-3)GalNAc
# In short: as §1
# [23] = biological target: Fuc(a1-2)Gal(b1-4)GlcNAc(b1-3)[Fuc(a1-2)Gal(b1-4)GlcNAc(b1-6)]GalNAc
# In short: as §1
# [24] = biological target: Fuc(a1-2)Gal(b1-4)GlcNAc6S
# In short: as §1
binder,measurement,setting,value
B1,glycan array binding signal (z-score),Fuc(a1-2)Gal,-0.159
same,glycan array binding signal (z-score),Fuc(a1-2)Gal(b1-3)GalNAc,-0.163
same,glycan array binding signal (z-score),[1],-0.159
same,glycan array binding signal (z-score),[2],-0.161
same,glycan array binding signal (z-score),[3],-0.162
same,glycan array binding signal (z-score),[4],-0.162
same,glycan array binding signal (z-score),[5],-0.162
same,glycan array binding signal (z-score),Fuc(a1-2)Gal(b1-3)GlcNAc,-0.151
same,glycan array binding signal (z-score),[6],-0.158
same,glycan array binding signal (z-score),[7],-0.157
same,glycan array binding signal (z-score),[8],-0.135
same,glycan array binding signal (z-score),[9],-0.157
same,glycan array binding signal (z-score),[10],-0.157
same,glycan array binding signal (z-score),[11],-0.16
same,glycan array binding signal (z-score),[12],-0.139
same,glycan array binding signal (z-score),[13],-0.163
same,glycan array binding signal (z-score),[14],-0.161
same,glycan array binding signal (z-score),[15],-0.164
same,glycan array binding signal (z-score),[16],-0.062
same,glycan array binding signal (z-score),Fuc(a1-2)Gal(b1-4)Glc,-0.153
same,glycan array binding signal (z-score),Fuc(a1-2)Gal(b1-4)Glc6S,-0.16
same,glycan array binding signal (z-score),Fuc(a1-2)Gal(b1-4)GlcNAc,-0.158
same,glycan array binding signal (z-score),[17],-0.158
same,glycan array binding signal (z-score),[18],-0.16
same,glycan array binding signal (z-score),[19],-0.156
same,glycan array binding signal (z-score),[20],-0.16
same,glycan array binding signal (z-score),[21],-0.161
same,glycan array binding signal (z-score),[22],-0.159
same,glycan array binding signal (z-score),[23],0.327
same,glycan array binding signal (z-score),[24],-0.148
